Eight compounds from PubChem BioAssay AID2060907 (Molecular Pharmacology Branch, DTP, NCI, 2025) can be followed below.

SMILES strings stand for the structures. The source holds more than one record for some entries. Only these are listed. The source may hold further records. The values listed for one entry repeat one measurement across runs, samples, wells, individuals or studies. Marks such as [2022-09] give the month of the run.

For the assay, the system named is 388556-164-R-J1-PDC complex spheroid viability. The assay is described as follows: Anticancer human tumor 388556-164-R-J1-PDC patient-derived colon adenocarcinoma cell line growth inhibition [RAS]. As to conditions: for viability, T/C: stronger effect = lower value; for IC50: compound alone. The source says:
RAS pathway inhibitors in Combinations in Complex Spheroids
A high-throughput screen of multi-cell type tumor spheroids was designed to identify active combinations of RAS pathway inhibitors and targeted small molecules. Complex spheroids include a stromal component modeled by human endothelial cells (HUVEC) and fibroblasts modeled by human mesenchymal stem cells (MSCs). The concentration ranges selected for each drug and investigational agent were based upon clinically achievable concentrations if the clinical Cmax of the agent was known.
Compounds. The drugs and investigational agents: abemaciclib (NSC768073), cobimetinib (NSC768068), divarasib (GDC6063, NSC841802), docetaxel (NSC628503), GDC-1971 (RLY-1971, NSC841576), gemcitabine (NSC613327), inavolisib (NSC800729), ipatasertib (NSC767898), KB-0742 (NSC834161), MRTX-1133 (NSC836407), osimertinib (NSC779217), RMC-4630 (NSC839698), RMC-6236 (NSC851965), RMC-6291 (NSC852671), Ro-3306 (NSC812927), sapanisertib (NSC764658), SN-38 (NSC673596), staurosporine (NSC755774), SY5609 (NSC837396), and tovorafenib (DAY101, NSC766906), were obtained from the National Cancer Institute (NCI) Developmental Therapeutics Program Chemical Repository. The FDA-approved anticancer drug set is available from the NCI Developmental Therapeutics Program. […] The stock solutions were prepared in dimethyl sulfoxide (DMSO, Sigma-Aldrich, St. Louis, MO, cat. D2650) at 800-fold the tested concentration and stored at -70 degrees C prior to their use. All drugs and investigational agents were tested over a range starting from a high concentration at or near the clinical Cmax and decreasing in half-log increments. If the clinical Cmax for an agent had not been determined, the highest concentration tested was 10 microM.
Cell Culture. All cells were maintained in an incubator at 37 degrees C and 5% CO2 with 95% humidity. The PDC lines were cultured according to standard operating procedures established by the NCI PDMR. All PDCs were thawed and cultured in Matrigel-coated flasks prepared with a working solution of 1X Ham's F-12 nutrient mix, without supplementation (Invitrogen, Waltham, MA, cat. 11765054), 100 U/mL penicillin-streptomycin (Invitrogen, cat. 15140122), and 2.5% Matrigel (Corning Inc., Corning, NY, cat. 354248) for the first three passages. The 362531-283-R-J2-PDC and 782815-120-R-J1-PDC lines were cultured in 6C/Colon 1B media, which includes advanced DMEM/F-12 (Thermo Fisher Scientific, cat. 12634028), 10 mM HEPES (Thermo Fisher Scientific, cat. 15630080), 1X GlutaMAX supplement (Thermo Fisher Scientific, cat. 35050061), 0.1 mg/mL primocin (InvivoGen, San Diego, CA, cat. ant-pm-2), 10% defined fetal bovine serum, heat inactivated (HyClone Laboratories Inc., Logan, UT, cat. SH30070.03HI), 50% L-WRN conditioned media (ATCC, cat. CRL-3276), 1.25 mM N-Acetyl-L-cysteine (Sigma-Aldrich, cat. A9165), 10 mM nicotinamide (Sigma-Aldrich, cat. N0636), 1X B-27 supplement (Thermo Fisher Scientific, cat. 17504044), 1X N-2 supplement (Thermo Fisher Scientific, cat. 17502048), 50 ng/mL human EGF (Thermo Fisher Scientific, cat. PHG0311), and 10 microM Y-27632 dihydrochloride (Tocris Bioscience, cat. 1254). The K12877-001-R-J1-PDC line was cultured in 6I media, which includes all 6C/Colon 1B media plus 10 ng/mL human FGF-10 (PeproTech, cat. 100-26), 1 ng/mL human FGF-2 (PeproTech, cat. 100-18B), 1 µM prostaglandin E2 (Tocris Bioscience, cat. 2296), […] hydrocortisone (Sigma-Aldrich, cat. H4001), and […] bovine insulin (Sigma-Aldrich, cat. I6634). The K86415-001-R-J1-PDC line was cultured in 6D media, which includes all 6C/Colon 1B media components minus the L-WRN conditioned media. The 485176-168-R4-J1-PDC was cultured in PANC media, which includes all 6C/Colon 1B media plus 100 ng/mL human FGF-10 (PeproTech, cat. 100-26), 500 nM SB-431542 (Selleckchem, cat. S1067), and 10 nM gastrin (Tocris Bioscience, cat. 3006). […]
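Note: spheroids exposed to compound for 7 days before readout.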
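Throughout, for viability, T/C: 100% = DMSO vehicle control luminescence.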

What is called viability, T/C is the result in the treated group divided by that in the control group, in per cent. With `C=CC(=O)N1CCN(c2nc(OCC3CCCN3C)nc3c(F)c(-c4nc(N)cc(C)c4C(F)(F)F)c(Cl)cc23)C(C)C1` (stereo not given), for the setting “compound alone 0.01 µM”, the viability, T/C is 89.1% [2024-08] and 103, 104, 96.8, 107, 112, 99.4, 93.8, 90.7, 117, 97% [2024-09].
In the case of `CCC(CC)c1cc(NC2CCC(N)C2)n2nccc2n1` (stereo not given), the viability, T/C (compound alone 3.16 µM) is 55.6%, 15.3% [2024-08] and 47.1%, 38.1% [2024-09].
`O=C(c1ccc(F)c(F)c1Nc1ccc(I)cc1F)N1CC(O)([C@@H]2CCCCN2)C1`: the viability, T/C (compound alone 0.00316 µM) was 97.9%, 105% [2024-08] and 77.7%, 98.6% [2024-09].
For the compound `CC(C)NCC(C(=O)N1CCN(c2ncnc3c2C(C)CC3O)CC1)c1ccc(Cl)cc1` (stereo not given), the viability, T/C (compound alone 0.0316 µM) is 109%, 103% [2024-08] and 82.6%, 122% [2024-09].
Same read-out and setting: to `CC(Nc1ccc2c(c1)OCCn1cc(N3C(=O)OCC3C(F)F)nc1-2)C(N)=O` (stereo not given) belongs 94.2%, 92.7% [2024-08] and 83.9%, 110% [2024-09].
Broadly, the IC50 is the concentration that gives 50% inhibition. As to `CC(C)n1nc(-c2ccc3oc(N)nc3c2)c2c(N)ncnc21`, the IC50 was 59.2 nM, 49.7 nM [2024-08] and 100 nM, > 100 nM [2024-09]. In addition, the viability, T/C (compound alone 0.001 µM) was 77.4%, 100% [2024-08] and 104%, 97.7% [2024-09].
As to `C=CC(=O)Nc1cc(Nc2nccc(-c3cn(C)c4ccccc34)n2)c(OC)cc1N(C)CCN(C)C`, the viability, T/C (compound alone 0.00316 µM) was 104%, 95.3% [2024-08] and 76.9%, 97.7% [2024-09].
Consider `Cc1nc(N2CCC3(CC2)COC(C)C3N)c(CO)nc1Sc1ccnc(N)c1Cl` (stereo not given), for which the IC50 was 9.27 µM, 2.18 µM [2024-08] and 3.83 µM, 5.08 µM [2024-09]. Further, under “compound alone 0.0316 µM”, the viability, T/C was 107%, 97.2% [2024-08] and 75.8%, 105% [2024-09].
